{"source": "PubChem BioAssay AID686978", "about": "(National Center for Advancing Translational Sciences (NCATS), 2013)", "note": "The whole screen tested about 420,000 compounds, of which about 64,000 (15%) were called active. Calls follow the shape of the dose curve; as a rule, active = well fitted inhibition curve with a large enough effect; inconclusive = small, poorly fitted or top-dose-only effect; inactive = flat fitted curve, though single readings scatter. Inconclusive means that the source gave no clear call. No potency is given beside an inconclusive call; the fits are too rough."}
{"assay": "qHTS for Inhibitors of human tyrosyl-DNA phosphodiesterase 1 (TDP1): qHTS in cells in absence of CPT; also: potency is read from the fitted curve at half-maximal effect; nearly all actives have a fitted effect of over 55% in size; tags tell the direction and shape of the fitted curve", "conditions": "DT40 Tdp1-/- hTDP1 cells, no CPT, ATP luminescence, 48 h; series mostly up to 46.2 µM", "outline": "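No-CPT arm: Tdp1-/-;hTDP1 DT40 cells (400/well) plus compounds, incubated ≥48 hr at 37 °C. Readout CellTiter-Glo luminescence.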"}
{"molecule": "Cc1cc(N2C(=O)C(O)=C(C(=O)c3cc4ccccc4o3)C2c2cccc(Br)c2)no1", "note": "(configuration not stated)", "Potency": "inconclusive [inhibitor, single point]"}
{"molecule": "COC(=O)c1sc(-c2ccc(C(C)(C)C)cc2)cc1NC(=O)COCC(=O)O", "Potency": "inconclusive [inhibitor, single point]"}
